Test results reported in article PMC4336329 (PLoS ONE, 2015).
Hit rate of the full screen: of about 310,000 compounds, about 14,000 (4.5%) showed an effect of 50% or more. The effect is printed as a negative number. Some of the results follow.

target: human ether-à-go-go-related gene (hERG) potassium channel (human, UniProt Q12809); test: primary screen, population patch clamp on CHO cells stably expressing hERG
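Also: peak tail current of the secondary pulse compared with the same well before compound.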

Chain of human ether-à-go-go-related gene (hERG) potassium channel (Q12809 whole entry, looked up): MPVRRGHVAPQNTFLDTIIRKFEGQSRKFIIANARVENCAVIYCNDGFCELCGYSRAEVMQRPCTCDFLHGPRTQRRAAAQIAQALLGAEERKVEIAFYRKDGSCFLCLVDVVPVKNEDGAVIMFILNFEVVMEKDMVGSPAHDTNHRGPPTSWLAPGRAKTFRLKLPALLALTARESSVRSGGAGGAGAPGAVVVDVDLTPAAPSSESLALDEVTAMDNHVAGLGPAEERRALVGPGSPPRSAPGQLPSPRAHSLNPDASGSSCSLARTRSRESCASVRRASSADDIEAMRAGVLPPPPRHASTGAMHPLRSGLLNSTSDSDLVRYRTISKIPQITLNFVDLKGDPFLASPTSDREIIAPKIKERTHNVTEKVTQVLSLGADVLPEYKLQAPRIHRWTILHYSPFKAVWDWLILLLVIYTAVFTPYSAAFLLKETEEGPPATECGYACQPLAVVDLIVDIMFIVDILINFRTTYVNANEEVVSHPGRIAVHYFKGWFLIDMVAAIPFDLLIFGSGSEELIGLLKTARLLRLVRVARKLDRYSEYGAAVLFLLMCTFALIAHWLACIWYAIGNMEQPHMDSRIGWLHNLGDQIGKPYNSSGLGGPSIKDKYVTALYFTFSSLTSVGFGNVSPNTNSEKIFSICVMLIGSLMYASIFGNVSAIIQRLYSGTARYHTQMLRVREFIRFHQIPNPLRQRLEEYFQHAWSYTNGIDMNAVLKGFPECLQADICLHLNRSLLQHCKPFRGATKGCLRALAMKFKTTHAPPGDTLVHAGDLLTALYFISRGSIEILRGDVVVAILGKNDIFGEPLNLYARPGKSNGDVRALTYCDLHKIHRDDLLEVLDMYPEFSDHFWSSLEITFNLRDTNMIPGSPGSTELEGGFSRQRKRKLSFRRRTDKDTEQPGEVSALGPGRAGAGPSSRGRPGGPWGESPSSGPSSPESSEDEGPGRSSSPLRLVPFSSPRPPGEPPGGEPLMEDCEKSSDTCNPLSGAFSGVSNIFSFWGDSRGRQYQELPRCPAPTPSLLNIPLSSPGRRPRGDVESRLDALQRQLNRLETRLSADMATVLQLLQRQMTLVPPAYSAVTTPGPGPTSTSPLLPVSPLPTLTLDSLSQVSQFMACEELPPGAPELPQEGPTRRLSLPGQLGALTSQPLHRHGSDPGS

In order of falling “hERG current change (%, negative = inhibition) at 10uM” value:
1. S=c1[nH]nc(CCc2nc3ccccc3[nH]2)n1-c1cccc(Cl)c1  35%
2. COc1ccc(S(=O)(=O)NCC2CCCN(C(=O)CNC(C)=O)C2)cc1 (centres unmarked)  24.4%
3. C=CCn1c(Oc2ccc(C=O)cc2OCC)nc2c1c(=O)n(C)c(=O)n2C  24.4%
4. Cc1ccc(-c2cc(C(=O)Nc3cc(C)ccc3O)no2)cc1  23.8%
5. COc1cc(-c2cc(-c3ccc(O)cc3)nc(N)c2C#N)ccc1O  18.5%
6. Cn1cccc1/C=C1\SC(=S)N(NC(=O)c2ccc(F)cc2)C1=O  18.2%
7. Cc1cc(C)n(-c2ncc(C#N)cn2)n1  18.1%
8. Cc1cccc(Nc2ncnc(N)c2[N+](=O)[O-])n1  17.8%
9. COc1ccc(-c2csc(NC(=S)NC(=O)c3ccco3)n2)cc1  16.1%
10. CS(=O)(=O)N1CCC(C(=O)NCc2ccccc2)CC1  15.9%
11. CC(C)(C)C(=O)COC(=O)C1CC(=O)N(c2ccccc2)C1 (centres unmarked)  15.9%
12. O=[N+]([O-])c1ccc(S(=O)(=O)c2ccccc2)nc1  15.7%
13. CN(C)/C=C/C(=O)c1ccccc1OCc1cnc(Cl)s1  14.6%
14. O=c1[nH]c(C2CCCN(S(=O)(=O)c3ccccc3)C2)nc2c1nnn2Cc1cccc(Cl)c1 (centres unmarked)  14.5%
15. Cc1cc2oc(=O)cc(CNc3ccccc3F)c2cc1O  14%
16. NC(=O)COc1ccc(/C=C2\C(=O)ON=C2c2ccccc2)cc1  14%
17. CCC(Sc1ccc2nnc(-c3cccnc3)n2n1)C(=O)O (centres unmarked)  13.9%
18. CCNC(=S)NNc1nc(N2CCOCC2)nc(N2CCOCC2)n1  13.8%
19. CCN(CC(=O)NCc1ccccn1)S(=O)(=O)c1ccc(OC)cc1  12.4%
20. Cc1cc(C)n2nc(SCC(=O)N3CCOCC3)nc2n1  12%
21. CC(C)(C)c1ccc(COC(=O)Nc2ccc(F)cc2)cc1  11.8%
22. CCC(=O)Nc1nnc(S(=O)(=O)N2CCCCCC2)s1  11.8%
23. COc1ccc(NC(=O)CC2Oc3ccc(C)cc3NC2=O)cc1 (centres unmarked)  11.3%
24. CCOc1ccc(N2C(=O)CC(Sc3nc(-c4cccs4)cc(C(F)(F)F)c3C#N)C2=O)cc1 (centres unmarked)  10.2%
25. CC(C)(C)NC(=O)N1c2ccccc2Sc2ccccc21  9.33%
26. COCCCn1c(=S)[nH]c2sc3c(c2c1=O)CCCC3  8.85%
27. COCCC(=O)N1CCC(Oc2ccc(C(=O)N3CCCCCC3)cc2)CC1  8.67%
28. CCOc1ccc(-c2nnc(NC(=O)Cc3cc(OC)c(OC)c(OC)c3)o2)cc1  8.33%
29. CN(C(=O)COC(=O)C12CC3CC(CC(C3)C1)C2)c1c(N)n(Cc2ccccc2)c(=O)[nH]c1=O  7.54%
30. O=C(COc1cccc(NC(=O)c2cccc([N+](=O)[O-])c2)c1)c1ccc(Br)cc1  6.94%
31. CCOC(=O)C1=C(C)OC(N)=C(C#N)C1c1cc2ccccc2nc1N1CCCCC1 (centres unmarked)  6.3%
32. Cc1c(-c2ccc(Cl)cc2)oc(=O)c2c(N)n(-c3ccccc3)nc12  6.06%
33. Cc1cc(S(=O)(=O)N2CCCC(C)C2)ccc1-n1cnnn1 (centres unmarked)  5.72%
34. Cc1ccc(C)c(S(=O)(=O)NNC(=O)Nc2ccccc2Cl)c1  5.51%
35. CCOC(=O)C1=NN(c2ccccc2)C(c2ccccc2)CC1=O (centres unmarked)  5.31%
36. CC1(C)Cc2nc3oc4c(=O)n(CC(=O)Nc5ccccc5)cnc4c3cc2CO1  5.24%
37. CCCCC/C(=N/O)c1c(C)[nH]c2ccccc12  4.53%
38. CCOC(=O)C(C(=O)OCC)N(C#N)c1nc(N(C)C)nc(N(C)C)n1  4.35%
39. Cc1nn(C)c(C(=O)NNC(=S)NC2CCCCC2)c1Br  3.97%
40. S=c1ccc2ccccc2[nH]1  3.94%
41. CC(C)NC(=O)c1cccc(Cn2cc(Cl)cn2)c1  3.17%
42. CCC1Oc2ccccc2N(CC(=O)NCCCN2CCN(CC)CC2)C1=O (centres unmarked)  2.97%
43. C1=CC2CCC1ON2c1ccccc1 (centres unmarked)  2.6%
44. Cc1ccc(NC(=O)CSc2ncc3ccccn23)cc1C  1.55%
45. O=C(Nc1cccc2ncccc12)c1ccc(-c2ccc(Br)cc2)o1  -0.798%
46. CN(C)CCCNS(=O)(=O)c1ccc(-n2nnc3ccccc32)c([N+](=O)[O-])c1  -2.27%
47. N#CC1=C(N)SC(N)=C(C#N)C1C1CC=CCC1 (centres unmarked)  -2.71%
48. CCN(CC)C(=O)COn1c(SCC(=O)N(CC)CC)nc2ccccc2c1=O  -3.82%
49. COc1ccc(NC(=O)c2cc(-c3cc(C)cc(C)c3O)n[nH]2)cc1Cl  -4.52%
50. CN(CC(=O)Nc1ccccc1Cl)C(=O)CN1C(=O)C2CCCCC2C1=O (centres unmarked)  -4.54%
51. CCN1C(=O)[C@H]2[C@@H](c3ccc(Cl)cc3)N3C(=O)CN(CCOC)C(=O)[C@@]3(Cc3ccccc3)[C@H]2C1=O  -4.75%
52. CCC(=NCC1CCCO1)c1c(O)[nH]c(=O)[nH]c1=O (centres unmarked)  -5.49%
53. CC1(c2ccccc2Cl)NC(=O)N(CC(=O)Nc2ccc3c(c2)OCO3)C1=O (centres unmarked)  -5.81%
54. Cc1ccc(C(=O)CSC2=C(C#N)C(c3ccco3)C3=C(CC(C)(C)CC3=O)N2)cc1 (centres unmarked)  -6.17%
55. Cc1cc(SCC(=O)c2ccccc2)nc(C)n1  -6.65%
56. CCOc1ccccc1C(=O)N[C@H](C(=O)OCc1cc([N+](=O)[O-])cc2c1OCOC2)C(C)C  -6.89%
57. COc1ccc(CC(=O)N2CCNC2=O)cc1  -7.39%
58. CO/N=C/C(C#N)c1ncc(C(F)(F)F)cc1Cl (centres unmarked)  -8.25%
59. COCC(=O)NC1CCN(C(=O)NCc2ccccc2)CC1  -8.64%
60. Cc1nc(-c2ccccc2)sc1C(=O)/C=C/N(C)C  -8.92%
61. CCC1(c2ccc(F)cc2)NC(=O)N(CC(=O)NCc2ccccc2Cl)C1=O (centres unmarked)  -10.3%
62. CCN(C(=O)CCS(=O)(=O)c1cccc2nonc12)c1ccc(C)c(C)c1  -10.3%
63. CCCc1nnc(SCC(=O)Nc2ccc(NC(C)=O)cc2)n1-n1cccc1  -11%
64. O=C(O)COc1ccc2c(c1)O/C(=C\c1cccs1)C2=O  -12.1%
65. Cc1cc(C)c2c(c1)cc(C)c1nnc(SCC(=O)N3CCCc4ccccc43)n12  -13.1%
66. Cn1cccc1CNCCc1ccccc1F  -13.6%
67. O=C(c1ccco1)N1CCN(c2ncnc3c(-c4ccccc4)nsc23)CC1  -14.2%
68. CC1CCCCN1C(=O)c1cccc(NC2=C(Cl)C(=O)N(Cc3ccccc3)C2=O)c1 (centres unmarked)  -15.8%
69. Cc1ccc(CN2C(=O)c3ccccc3C2C(=O)NCC2CCCO2)cc1 (centres unmarked)  -16.4%
70. CCOC(=O)N1CCN(CC(O)COc2c(C)cc(C)cc2C)CC1.Cl (centres unmarked)  -18%
71. Cc1ccc(N2CCN(C(=O)c3ccccc3)CC2)c(C)c1  -18.4%
72. OC1(c2ccc(F)cc2)CC2CCC(C1)N2Cc1nnnn1C1CCCC1 (centres unmarked)  -20.3%
73. C#Cc1ccc([C@H]2C=C(C(=O)N3CCOCC3)O[C@@H](OCc3ccc(CO)cc3)C2)cc1  -23.2%
74. CCOc1cc(-c2nc(C)c(C(C)=O)n2O)ccc1OCC(=O)Nc1cccc(C)c1  -23.5%
75. CCC(C)Nc1ncnc2c1cnn2Cc1ccc(Cl)cc1 (centres unmarked)  -24.9%
76. Cc1cc(C)c(NC(=O)C2CCCN2CCOC(=O)c2ccccc2)c(C)c1.Cl (centres unmarked)  -26%
77. Oc1ccc(O)c(-c2cnns2)c1  -27.3%
78. COc1ccc(/C=C/C(=O)OCC(=O)Nc2ccc(C)cc2)cc1S(=O)(=O)N1CCOCC1  -28.6%
79. CC1Sc2ccc(S(=O)(=O)CCC(=O)NCc3ccc(Cl)cc3)cc2NC1=O (centres unmarked)  -28.7%
80. CCOC(=O)N1CCN(c2c(N3CCN(C(=O)OCC)CC3)c(=O)c2=O)CC1  -29.1%
81. Cc1ccc(C(c2cc(Br)ccc2O)N2CCSCC2)cc1 (centres unmarked)  -30.9%
82. Cc1nnc(SCCn2c(N3CCN(Cc4ccccc4)CC3)nc3c2c(=O)[nH]c(=O)n3C)s1  -38.4%
83. COc1cc(C)nc(OCCNC(=O)COc2ccc(Cl)cc2C)n1  -40.5%
84. Cn1c(=O)c2c(nc(CN3CCN(C(=O)c4ccco4)CC3)n2Cc2ccccc2)n(C)c1=O  -40.7%
85. Cc1c(C(=O)N2CCCc3ccccc32)oc2ccc(S(=O)(=O)N3CCOCC3)cc12  -44.2%
86. CCCN1CCC2(CC1)C(C#N)=C(N)Oc1c2sc2nc(C)cc(C)c12  -47.8%
87. CC1(C)CC(=O)C(C=NCCN2CCN(C(=O)c3ccc(Br)cc3)CC2)=C(O)C1  -48.2%
88. O=C(NCC1CC1)c1onc(CSc2ccc(F)cc2)c1C(=O)NCC1CC1  -51.6%
89. COc1ccccc1-c1nnc2sc(COc3ccc(F)cc3)nn12  -74%
